According to the supplement of paper PMC3334620:
The full ranking holds about 33,000 sequences; the median of “E-score (-0.5 to 0.5)” is about -0.016, and the highest 2% start at about 0.31. This is one part of the list.

Each sequence was assayed against Cst6 (UniProt P40535) (assay: PBM E-score (8-mer binding enrichment) (E-score (-0.5 to 0.5)); higher = stronger / more preferred TF binding; most listed sequences are background and not binding sites). Settings: protein concentration: 200 nM; construct: GST-DNA-binding domain.
Method in brief: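 Full-length yeast transcription factors or their DNA-binding domains, GST-tagged and expressed with PURExpress, were applied at about 100-200 nM to universal all-10-mer Agilent arrays. These arrays had been made double-stranded by primer extension on fresh or once-stripped slides. Detection used fluorescent anti-GST, normalisation used masliner, and E-scores for ungapped eight-base words pooled with reverse complements came from the Universal PBM Analysis Suite.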

Sequence	PBM E-score
CGAGATCA	0.00206
CCACTCCA	-0.161
CATTGCCA	0.065
ACTTCGTG	-0.0493
CGAAAATC	0.236
TATCGTCA	0.397
ACGCGGCT	0.248
AGCTACAT	0.0188
AGTACCTG	-0.121
CCATTCTA	-0.0992
CGAACGAC	-0.0211
CCTGACAA	-0.00807
TACGGCAA	0.221
AGGCTGTC	-0.242
CCAGGGTC	-0.294
GATCCGCA	-0.109
CCCGCATC	-0.0893
ATTCCAGG	-0.0925
AACCCCAA	-0.0731
ACCTGTAC	-0.049
AGACCTCG	-0.0278
CCCGTCCA	-0.184
GATAAGTA	0.0146
CCATAGTC	-0.16
GAATGGTC	-0.253
ACAATGGT	-0.0312

Sequence	PBM E-score
AAGCGATT	-0.00953
CAAGCTAA	-0.17
ACGCCAGA	-0.121
AGACTCCG	-0.0542
CGATTGAC	0.171
ATACGGGA	-0.105
ACCCGACA	-0.114
CCTATATA	0.0362
CAACTTCG	0.0207
CTTCCTGA	0.112
AGCGTCCA	-0.159
AATATTTG	0.241
CGCGGTGC	-0.139
AGGGGAGG	-0.244
ATCCACAT	0.0893
AAACAGTG	0.0576
CATACATC	0.289
GGGTACCC	-0.239
CAAAGCCA	0.113
AATACTGG	-0.0267
CCCAGCAC	-0.382
GCGTCCTA	-0.207
CCCGGCCG	-0.242
CGTAAAGA	0.167
CAGACCCA	-0.135
CTGCTAGA	-0.0579

Sequence	PBM E-score
GATTGCGA	0.0713
CATATCAG	0.0501
CGGTTGAC	0.175
AGATTCTG	-0.0861
GATGCCTA	-0.0343
GCGGTGCC	-0.0111
GACTTACA	-0.0298
CACTAGTA	0.069
AACAGATA	0.0862
ACCTATAA	0.0182
CTGCTGTC	-0.123
ATCGAGTC	-0.0616
ACCAGGCC	-0.0858
TAAATCGA	0.204
CAGTGGGG	-0.322
GAGGAAAC	-0.14
CCCGCTAA	-0.325
CATGTAGA	0.0765
GCTGGATA	-0.1
ATCTGCAC	-0.138
GACTTTCC	-0.0331
AGACGATG	0.0839
CACCACAC	0.00439
CGTGACAG	0.0907
ATCCGACA	-0.144
AGCGCGGG	-0.0965

Sequence	PBM E-score
CCGAAGCA	-0.0309
CAACATTG	0.0777
AACCGTCC	-0.298
ATTAAGAG	0.0898
ACCAGCCC	-0.169
GATGCCAC	0.158
AGTTTCGC	-0.00823
ACCTTAAC	0.0629
GGTGTATA	-0.195
GCATTTAA	0.153
CCATCGCG	0.128
GAAGTCCA	-0.303
AGAAGGCA	0.0312
CCGAGCAC	-0.263
AGCGCCGC	0.309
CACCCGAA	0.0623
AATGCCGA	0.041
GTCGTCGA	-0.00727
AGCAGAGA	-0.00014
GGCGAAAA	0.126
ACGAAATG	0.0827
ACGCTGTA	0.129
ACGTAGGA	0.267
CTTTAGAA	0.0739
CTGCCGCA	0.0518
CTATAATC	0.058

Sequence	PBM E-score
GCCCAGGA	-0.159
TAACTATA	0.104
GCGGCAGC	-0.104
GACTAGCA	-0.131
AATCGAAT	0.149
CCGGCTAA	-0.0511
AACGCACT	0.154
CTGGGACA	-0.219
TAGCGCAA	0.122
GCGTATTA	0.0768
GTAGCGCA	-0.0108
AAACTTCT	0.169
GGCAAGCC	-0.127
AATTTGTG	0.0781
AAGGACAA	0.0775
CGGCTTAG	-0.171
ACTCCCTA	0.00704
CCTAACAC	0.106
AGTACGCC	-0.0182
ACGGTCTC	-0.219
ATTAGTCG	0.169
CACATCAG	-0.0727
GGGTAGTA	-0.251
TTAGGCAA	-0.00879
CCATACGG	0.237
ACAACACG	0.135

Sequence	PBM E-score
AGATTTAT	0.195
AACATAAA	0.147
GGGGACGA	-0.19
AATTACAA	0.181
CGCACACC	-0.0563
ACGGCTTA	0.203
AGACACGA	0.0491
ATCTACCG	0.0145
TGACTGAA	0.0758
AACTAGAG	0.00307
GGGATGCA	-0.308
ACAATCTA	0.0502
CATCTGGG	-0.143
GCTTAGCC	-0.243
CCGAGTGA	0.0419
GATACTCA	0.0144
GACTCGCC	-0.223
ACTAGAGG	-0.213
GGGAGCGA	-0.225
GATCTAAA	0.077
ATCACTCA	0.138
